According to PubChem BioAssay AID881 (National Center for Advancing Translational Sciences (NCATS), 2007):
About 610 (0.55%) of roughly 110,000 compounds were called active. This list was built around the results that the source calls inconclusive (neither active nor inactive); the mix of calls is not that of the screen. Calls follow the shape of the dose curve; as a rule, active = well fitted inhibition curve with a large enough effect; inconclusive = small, poorly fitted or top-dose-only effect; inactive = no such curve, though single readings can be large or run the other way. Where the call is inconclusive, the potency comes from a doubtful curve fit.
% is scaled to controls: 0 for no effect and ±100 for the full control effect; potency is read from the fitted curve at half-maximal effect; tags tell the direction and shape of the fitted curve.
Also: nearly all actives have a fitted effect of over 60% in size.

These compounds were tested against Polyunsaturated fatty acid lipoxygenase ALOX15B (Homo sapiens) (UniProt O15296) (assay: qHTS Assay for Inhibitors of 15-hLO-2 (15-human lipoxygenase 2)). Conditions: purified 15hLO-2, xylenol orange hydroperoxide absorbance; activity change, negative = inhibition: at 57.1 µM (top of the series) unless noted.
Sequence of UniProt O15296 (O15296 whole entry, looked up): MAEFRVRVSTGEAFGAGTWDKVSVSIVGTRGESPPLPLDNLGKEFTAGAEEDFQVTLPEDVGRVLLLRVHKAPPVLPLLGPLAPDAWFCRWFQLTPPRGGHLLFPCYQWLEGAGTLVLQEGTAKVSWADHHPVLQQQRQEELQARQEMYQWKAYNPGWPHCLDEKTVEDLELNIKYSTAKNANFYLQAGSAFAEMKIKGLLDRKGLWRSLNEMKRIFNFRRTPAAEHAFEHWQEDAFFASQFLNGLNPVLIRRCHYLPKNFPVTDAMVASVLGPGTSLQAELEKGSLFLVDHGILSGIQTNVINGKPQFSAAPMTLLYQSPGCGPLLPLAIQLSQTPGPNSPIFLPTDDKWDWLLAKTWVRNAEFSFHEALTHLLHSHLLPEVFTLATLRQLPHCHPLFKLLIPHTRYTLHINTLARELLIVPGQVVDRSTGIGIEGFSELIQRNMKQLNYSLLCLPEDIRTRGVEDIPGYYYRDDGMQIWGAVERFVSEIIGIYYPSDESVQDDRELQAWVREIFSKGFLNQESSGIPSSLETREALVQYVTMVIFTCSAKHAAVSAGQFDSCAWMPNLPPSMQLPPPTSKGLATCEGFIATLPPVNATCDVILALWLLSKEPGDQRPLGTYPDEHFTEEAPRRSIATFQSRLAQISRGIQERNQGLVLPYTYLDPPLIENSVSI
How it was run: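 Screening format was qHTS against 50 nM purified 15hLO-2 in Hepes pH 7.5 with detergent. Activity follows hydroperoxide formation from 45 uM arachidonic acid, measured as 573:405 nm absorbance ratio of the ferric-xylenol orange complex.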
With `COC(=O)C1=C(C)NC(=O)/C1=C\c1cc(C)n(-c2c(C)cccc2C)c1C` the Potency was inconclusive: 15.8 µM [inhibitor, partial curve]. For `COc1ccc2c(=O)c3c(=O)n(Cc4ccco4)c(-c4ccc(C)cc4)nc3oc2c1`, the Potency was inconclusive: 25.1 µM [inhibitor, single point]. For `Cc1ccccc1OCC(O)Cn1c(SC(C)C)nc2c1c(=O)[nH]c(=O)n2C` (stereo unspecified), the Potency was inconclusive: 39.8 µM [inhibitor, single point]. With `O=S(=O)(Nc1cccc2c1ccc1cccn12)c1cccs1` the Potency was inconclusive: 0.316 µM [inhibitor, full curve]. In the case of `O=C(CSCc1ccco1)Nc1cc(C(F)(F)F)ccc1N1CCOCC1`, the Potency is reported as inconclusive: 12.6 µM [inhibitor, partial curve]. In the case of `CCOC(=O)NC1(NC(C)C)Oc2ccccc2O1`, the Potency is reported as “inactive”. `CC1(C)Cc2c(C#N)c(N3CCN(C(=O)c4ccccc4Cl)CC3)nc(-c3ccco3)c2CS1` was tested, and the Potency was inconclusive: 15.8 µM [inhibitor, partial curve]. `O=c1cc(O)cc(/C=C\c2ccc(O)c(O)c2)o1` was tested, and the Potency was inconclusive: 20 µM [inhibitor, partial curve]. In the case of `CC(Sc1nc(-c2ccccc2)cc(C(F)(F)F)n1)C(=O)Nc1sc2c(c1C#N)CCC2` (stereo unspecified), the Potency is reported as “inactive”. In the case of `O=C(Nc1ccc(Cl)c(Cl)c1)N1CCC(N2CCCCC2)CC1`, the Potency is reported as inconclusive: 0.199 µM [inhibitor, full curve, poor fit]. For `O=C(CCc1ccccc1)Nc1cc(Cl)ccc1O`, the Potency was inconclusive: 25.1 µM [inhibitor, single point]. For `CCOc1ccc2c(c1)N(C(=O)CN1C(=O)CCC1=O)C(C)(C)C=C2C`, the Potency was “inactive”. In the case of `O=C1Nc2ccccc2C12Nc1ccccc1S2` (stereo unspecified), the Potency is reported as active: 7.94 µM. In the case of `O=C(CNCC1CCCO1)Nc1ccccc1N1CCOCC1` (stereo unspecified), the Potency is reported as “inactive”. With `COc1ccc(NS(=O)(=O)c2ccc(NC(=S)NC(=O)CC(C)C)cc2)cc1` the Potency was inconclusive: 31.6 µM [inhibitor, single point]. `O=C1C=C(c2ccccc2)C(=O)N1Nc1ccccc1` was tested, and the Potency was inconclusive: 5.01 µM [inhibitor, partial curve]. For `Cn1cccc1/C=C1\CCC/C(=C\c2cccn2C)C1=O`, the Potency was inconclusive: 10 µM [inhibitor, partial curve]. `Cc1cc(N2C(=O)C(O)=C(C(=O)c3cccs3)C2c2ccccc2)no1` (stereo unspecified) was tested, and the Potency was “inactive”. `COC(=O)c1ccc(CSc2ccc3nnc(-c4cccc(F)c4)n3n2)o1` was tested, and the Potency was inconclusive: 39.8 µM [inhibitor, single point]. In the case of `Cc1cc(C2(c3cc(C)c(O)c(C(=O)O)c3)OS(=O)(=O)c3ccccc32)cc(C(=O)O)c1O`, the activity change, negative = inhibition is reported as inactive: -6.05% [at 11.4 µM]. For `O=c1[nH]c2ccc(Cl)cc2c(-c2ccccc2)c1SC(=S)N1CCCCC1`, the Potency was inconclusive: 12.6 µM [inhibitor, partial curve]. `COC(=O)C1=C(C)NC(=O)/C1=C\c1cc(C)n(-c2cccc(C)c2)c1C` was tested, and the Potency was inconclusive: 12.6 µM [inhibitor, partial curve]. With `CC(=O)Oc1ccc(N2C(=O)C3C4C=CC(CO)(O4)C3C2=O)cc1` (stereo unspecified) the Potency was “inactive”. `N#Cc1c(-c2ccco2)cc(C2CC2)nc1N` was tested, and the Potency was inconclusive: 12.6 µM [inhibitor, partial curve]. In the case of `Cn1c(=O)c(-c2ccc(Cl)cc2)nc2cnc(Oc3ccccc3)nc21`, the Potency is reported as “inactive”. For `COC(=O)c1cc2occc2n1CC(=O)Nc1ccc(C)cc1C`, the Potency was inconclusive: 3.16 µM [inhibitor, full curve, poor fit]. `CCCCCCCC1(C)NC(=O)N(c2ccccc2)N1` (stereo unspecified) was tested, and the Potency was inconclusive: 3.98 µM [inhibitor, partial curve]. With `CC(=O)c1cccc(NC(=O)Cc2ccc3c(c2)CCCC3)c1` the Potency was inconclusive: 6.31 µM [inhibitor, single point]. `CC(=O)NC(NC(=S)Nc1ccc(N=Nc2ccccc2C)cc1C)C(Cl)(Cl)Cl` (stereo unspecified) was tested, and the Potency was inconclusive: 15.8 µM [inhibitor, partial curve]. For `Cc1ccccc1Cn1nnc(C(=O)Nc2cccc(C)c2C)c1N`, the Potency was “inactive”. With `COc1ccc(-c2nc(SC)n(C(=O)c3ccco3)n2)cc1` the Potency was inconclusive: 12.6 µM [inhibitor, single point]. `CCCCn1c(=O)[nH]c(=O)c2c1nc(CN1C(=O)c3ccccc3S1(=O)=O)n2CCC` was tested, and the Potency was “inactive”. With `Cc1c(C#N)c(NC(=O)c2ccccc2)n(Cc2ccccc2)c1C` the Potency was inconclusive: 7.94 µM [inhibitor, single point]. `CC(=O)OCc1ccc2c(c1)OCO2` was tested, and the Potency was “inactive”. For `COC(=O)c1ccc(-c2sc3nc(N4CCOCC4)c4c(c3c2N)CC(C)(C)OC4)o1`, the Potency was inconclusive: 20 µM [inhibitor, single point]. In the case of `COc1cccc(C2C(C(=O)c3cc4ccccc4o3)=C(O)C(=O)N2c2cc(C)on2)c1OC` (stereo unspecified), the Potency is reported as “inactive”. For `CCc1ccc(CCC(=O)O)nc1`, the activity change, negative = inhibition was inactive: -5.23% [at 11.4 µM]. `COc1cc(/C=C(/C#N)c2nc3ccccc3[nH]2)ccc1OCC(=O)Nc1ccccc1C` was tested, and the Potency was inconclusive: 31.6 µM [inhibitor, partial curve]. In the case of `CCOC(=O)C1=C(O)/C(=C/c2ccc(-c3ccccc3C(=O)O)o2)SC1=Nc1ccc(OC)cc1`, the Potency is reported as inconclusive: 31.6 µM [inhibitor, single point]. `Clc1ccccc1CSc1nnc(-c2ccco2)c(-c2ccco2)n1` was tested, and the Potency was inconclusive: 25.1 µM [inhibitor, partial curve, poor fit]. With `CCOc1ccc(C(=O)N2CCC(C(=O)c3ccc4c(c3)OCCO4)CC2)cc1` the Potency was “inactive”. In the case of `Cc1ccc(C)c(N(CC(=O)N/N=C/c2ccc(-c3ccc([N+](=O)[O-])cc3)o2)S(=O)(=O)c2ccccc2)c1`, the Potency is reported as inconclusive: 10 µM [inhibitor, partial curve]. In the case of `CCOC(=O)c1cc2c(=O)n3cccc(C)c3nc2n(CCCOC)c1=NC(=O)c1cccnc1`, the Potency is reported as inconclusive: 25.1 µM [inhibitor, single point]. With `CC1(C)OC2C[C@](O)(C(N)=O)C[C@H](O)[C@H]2O1` (stereo partly specified) the Potency was “inactive”. `O=C(c1ccco1)N1CCN(c2ncccn2)CC1` was tested, and the Potency was “inactive”. `Cc1c(Cc2ccccc2)sc(N)c1C(N)=O` was tested, and the Potency was inconclusive: 25.1 µM [inhibitor, partial curve]. With `CCOC(=O)COc1c(OC)cc(Cl)cc1C1Nc2ccccc2C(=O)N1c1cccc(C)c1` (stereo unspecified) the Potency was inconclusive: 25.1 µM [inhibitor, single point]. For `CCn1c(SCC#N)nc2c(c1=O)C1(CCCC1)Cc1ccccc1-2`, the Potency was “inactive”. For `CC1CCN(CC[C@@H]2CCCN2S(=O)(=O)c2cccc(O)c2)CC1`, the Potency was “inactive”. In the case of `Cc1c(C(=O)O)sc2ncn(C)c(=O)c12`, the Potency is reported as “inactive”. `CCCC(=O)c1cc(O)c(O)cc1O` was tested, and the Potency was inconclusive: 20 µM [inhibitor, partial curve]. In the case of `O=C(NC(=S)NCc1ccccc1)c1ccccc1F`, the Potency is reported as inconclusive: 20 µM [inhibitor, partial curve]. With `CC1CCCC2(C1)NC(=S)c1c(sc3c1CCCC3)N2` (stereo unspecified) the Potency was active: 12.6 µM. For `CCCn1nc([N+](=O)[O-])c(C(C#N)c2nc3ccccc3s2)c(Cl)c1=O` (stereo unspecified), the Potency was inconclusive: 12.6 µM [inhibitor, partial curve]. `O=C(CSc1nc2ccccc2[nH]1)Nc1ccc2c(c1)OCCO2` was tested, and the Potency was “inactive”. In the case of `N[C@H](CC(=O)O)C(=O)O`, the Potency is reported as “inactive”. For `O=S(=O)(NC1CCCC1)c1ccc(Br)s1`, the Potency was “inactive”. For `COc1cc(O)c2c(=O)cc(-c3ccc(OC)c(-c4c(O)cc(O)c5c(=O)cc(-c6ccc(O)cc6)oc45)c3)oc2c1`, the Potency was inconclusive: 12.6 µM [inhibitor, partial curve]. In the case of `CC[C@H]1CC[C@H]2[C@@H]3CC=C4C[C@H](OC(C)=O)[C@@H](N)C[C@@]4(C)[C@H]3CC[C@@]12C`, the activity change, negative = inhibition is reported as inactive: -0.563% [at 11.4 µM]. For `Cc1csc(NC(=O)C2CCN(S(=O)(=O)c3ccc4c(c3)oc(=O)n4C)CC2)n1`, the Potency was “inactive”. For `COc1ccc(Cn2nnc3c(=O)[nH]c(C(=O)NCCc4ccc(F)cc4)nc32)cc1OC`, the Potency was “inactive”. In the case of `NC(=S)N/N=C/c1ccc(-c2cc(Cl)cc(Cl)c2)o1`, the Potency is reported as inconclusive: 31.6 µM [inhibitor, single point]. In the case of `COc1ccc(-c2cc(OC(=O)c3ccc(F)cc3)c3c(C)oc(C)c3c(=O)c2)cc1`, the Potency is reported as inconclusive: 15.8 µM [inhibitor, partial curve, poor fit]. With `C=CCn1cnc2c(c1=O)c1nc3ccccc3nc1n2/N=C/c1cccc(OC)c1` the Potency was inconclusive: 7.94 µM [inhibitor, partial curve]. `COc1ccc2ccc3c(c2c1)N=C[C@]1(O3)N(C)c2ccccc2C1(C)C` was tested, and the Potency was inconclusive: 1.26 µM [inhibitor, full curve, poor fit]. For `Cn1cccc1C(=O)N1CCC[C@@]2(CCN(Cc3ccccc3)C2)C1`, the Potency was “inactive”. In the case of `COc1cc(OC)cc(-n2c3nc4ccccc4nc3c3c(=O)n(CC4CCCO4)cnc32)c1` (stereo unspecified), the Potency is reported as inconclusive: 31.6 µM [inhibitor, single point]. In the case of `COc1ccc(/C=N/Nc2snc(SC)c2C#N)cc1OC`, the Potency is reported as inconclusive: 10 µM [inhibitor, partial curve, poor fit]. `Cc1nc2ncnn2c(N2CCN(C(c3ccccc3)c3ccccc3)CC2)c1C` was tested, and the Potency was “inactive”. For `COCCn1c(-c2ccc(-c3ccccc3Cl)o2)nc2c1c(=O)[nH]c(=O)n2CC(C)C`, the Potency was inconclusive: 12.6 µM [inhibitor, partial curve]. For `CCOC(=O)N1CCC(Nc2c(Nc3cccc(CC)c3)c(=O)c2=O)CC1`, the Potency was inconclusive: 12.6 µM [inhibitor, partial curve].
